# Positions count from the first letter of the chain named. The list shows a part of the results.
# T1: UNK ZnF1-3 (human, UniProt Q9C0B0 31-174)
# T1 sequence: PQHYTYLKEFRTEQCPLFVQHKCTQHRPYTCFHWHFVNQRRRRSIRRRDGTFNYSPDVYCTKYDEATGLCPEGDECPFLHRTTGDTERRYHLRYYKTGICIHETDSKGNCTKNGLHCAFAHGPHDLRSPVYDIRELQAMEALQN
# B1: chr9:14812383:14812384:-_ENSMUSG00000031934_ENSMUST00000164273|mus_mus|mus_mus_mus_hu_True|88_88 (ssRNA)
# RNA: GGGAGUUCUACAGUCCGACGAUCAUAGCCCAGGUAGAUACACGCUAACAGUAUAACGAUGAGUGUCAGCAGGCGGCAGCUAAUGUACUUGAUGAUUAAAUUAUUAGAAUUUUUCUUUGUCUUCAAGUACUGCUCCACAAUUGGCAACAGAGGAUUGAGCAUCA
# B2: chr2:220084271:220084272:-_ENSG00000198925_ENST00000396761|hu_mus|motif|central (ssRNA)
# RNA: GGGAGUUCUACAGUCCGACGAUCGGAAGGGAGUGCAGGAAGGGUAGGAGCUGGAUCCCAGCAUGCAAUGUCGAAGCCCGGGGCGGGGGUGAGUCCAUUAUCCCUCCAUUCUCCUCUUGGUAAGUGAGGGAUACUGGGCAGAGCCAACAGAGGAUUGAGCAUCA
# B3: chr4:25749455:25749456:-_ENSG00000091490_ENST00000264868|hu_hu|hu_hu_hu_mus_False|58_68 (ssRNA)
# RNA: GGGAGUUCUACAGUCCGACGAUCGCACUAUGACCUCUAGAAAAAUCCACAGGGGGAAAAAAUGUAAACCAAUUUACAAAGCUAUUGCCUUCCCUGUGUGUGGAGUGUUUGUCUCAAGGCUCCUUCUAGCUGCUGGAUUUGGGACAACAGAGGAUUGAGCAUCA
# B4: 184041735_184042078_2385_CDS_ENSG00000114867_ENST00000411531|human|control|control (ssRNA)
# RNA: GGGAGUUCUACAGUCCGACGAUCGUCUUUCUCAAACUCCUUCUGACAUCGAUUCAACAACAGCUUUCGGAAGUUCACAGUCACUGUUGGCUUUUCCGUAGUGGGCACUUUCAGCGCCAUGAGGCAGCGGCACAUGUUGGCAUACAACAGAGGAUUGAGCAUCA
# B5: chr2:207631934:207631935:+_ENSG00000118246_ENST00000403094|hu_mus|FALSE|FALSE (ssRNA)
# RNA: GGGAGUUCUACAGUCCGACGAUCCUCUUGUCUUCAGAUAUCCUUUUGGCAAUUAUCCACAUUGCUAAGAAAUAGUUACUACCAGGAAAUGUAGGUGCUUUUGAAAAUGUGUCCAGCACAUCACUCAGAGAGUUACACUCCUGGCAACAGAGGAUUGAGCAUCA
# B6: chr19:21355511:21355512:+_ENSMUSG00000024750_ENSMUST00000025659|mus_hu|FALSE|FALSE (ssRNA)
# RNA: GGGAGUUCUACAGUCCGACGAUCCAUUUCUUCCUGCUUCCAAAGAAUAUGUUGUGAAAUUAAAGAGGGUGAAGUUUAACUAUGGUAGAAGUAGACUGCCAGUCCUUUUCUGGUGUACCAUUUUAAAAAAAUACAGGCACAUAACAACAGAGGAUUGAGCAUCA
# B7: 79837943_79842774_1736_3pUTR_ENSG00000067715_ENST00000261205|human|control|control (ssRNA)
# RNA: GGGAGUUCUACAGUCCGACGAUCCCCACAAAGACUUUGCCGAUGGCAUCGUUCUUGCCAAUCUUGUCAUAGUCCAAAACAGUUACCACCACCUGCACUUUCUGGAUUUGUUCAAAAGGUACUUCAAAGCUGAAUGACUCAUUGCAACAGAGGAUUGAGCAUCA
# B8: chr7:151048522:151048523:+_ENSG00000013374_ENST00000566856|hu_mus|hu_hu_hu_mus_True|78_88 (ssRNA)
# RNA: GGGAGUUCUACAGUCCGACGAUCCUGUUUCUUAUUUAUUACGAUCUUGAUAUAAUUUUCUUGAAGUCCGAAAGUUUCAGCUAUUUGACACCUCAGGUCUCUACCAGUGACAUGCAAGCGGGUCUCCAACAAGCUUUUCUUAUCCAACAGAGGAUUGAGCAUCA
# B9: 180261287_180261494_1942_CDS_ENSMUSG00000039630_ENSMUST00000037748|mouse|control|control (ssRNA)
# RNA: GGGAGUUCUACAGUCCGACGAUCCCUCUGCUUAUAGUCUUCAUCUUUUGGGCACACUACAACAGCUUUCCGCUGGAAGCCUGCAAACAGGCACAUUUUUCUUCUCUGGGCAGCAGCAGACACAUUUGUCUGAUCCAGAAUAAACAACAGAGGAUUGAGCAUCA
# B10: chr14:67421766:67421767:-_ENSMUSG00000022048_ENSMUST00000022629|mus_hu|FALSE|FALSE (ssRNA)
# RNA: GGGAGUUCUACAGUCCGACGAUCACAUUUUGCUUUAUUAGGCGUUCCAUGGUAAUAUAACACAGAGUUCUUAAGGAAUAAUAAACACGAGACUUGUUUUUUACCAUAAUUAUUUUGCCAUCAAGACAGUGGUUACAAAAAAAACAACAGAGGAUUGAGCAUCA
# B11: chr2:70106199:70106200:+_ENSG00000087338_ENST00000282570|hu_hu|FALSE|FALSE (ssRNA)
# RNA: GGGAGUUCUACAGUCCGACGAUCCGAUGUGAAUAUCAGUAGGGCCAUUAAAUUAAAGCUGGCCUAAAAAGUUUUCAAAGUGCUACUGUUUCCAACUGAUGAAAUCUUCAGUUUUCUGGAUUUUCUGGGUGACGAUUAUUUUCACAACAGAGGAUUGAGCAUCA
# B12: chr7:151048522:151048523:+_ENSG00000013374_ENST00000566856|hu_mus|hu_hu_hu_mus_True|8_98 (ssRNA)
# RNA: B8 RNA with U39G, G42A, C45U, A51G, G65A, C133U
# B13: chr2:32641123:32641124:+_ENSG00000115760_ENST00000421745|hu_hu|motif|central (ssRNA)
# RNA: GGGAGUUCUACAGUCCGACGAUCAGUGCCCUCCUUUUUGGGAGGCUCCACUUUGGCCAAAAUUUCAAAGUUUGAAAGAUCGGGUAUUUUUACAUAUCCUCCCUGAGUGGUUAUUACCAGGUGUCCAAGAGUAGAAAUGUCAGACAACAGAGGAUUGAGCAUCA
# B14: chr1:220276048:220276049:+_ENSG00000067704_ENST00000302637|hu_hu|hu_hu_hu_mus_True|58_88 (ssRNA)
# RNA: GGGAGUUCUACAGUCCGACGAUCGCAAAUUGCCUGGUUGGCGGGAAUCGUCCAAGGCUGGGUGGUCCAAACUAAAAUACUAACAGGGGAUGAGGCAUCUGUAAGAGACUCCAACUUCGGAGGAGGUCUCAGGAGGGGGAAUCUCAACAGAGGAUUGAGCAUCA
# B15: chr2:136540380:136540381:+_ENSG00000144224_ENST00000272638|hu_hu|FALSE|FALSE (ssRNA)
# RNA: GGGAGUUCUACAGUCCGACGAUCGGAAUUUCCAUUCCAAGUGUUGUUUUCAUCUUCACCAUCAUCUUGAGUCCUUAAUCUAUAAAUUUUCCCCUCCUUUUUAAAGUCGUCUCCACGUUUUUCCAGCACUCUUUUUCUCACUGGCAACAGAGGAUUGAGCAUCA
# B16: chr1:39494447:39494448:+_ENSG00000168653_ENST00000372967|hu_mus|hu_hu_hu_mus_False|28_48 (ssRNA)
# RNA: GGGAGUUCUACAGUCCGACGAUCGCACCGAGCGGCGUUCUUAUAGGGCUGUUCUGCGCUUAGGAACAUAAAGUGCCGGUCCAGGCUAAGGCCGAACUUUUUCUGUAUGUCCAAGAAAGGCAUGGCUCUGCAGUGCCCUUGUCACAACAGAGGAUUGAGCAUCA
# B17: chr2:86371542:86371543:-_ENSG00000132305_ENST00000449247|hu_hu|motif|central (ssRNA)
# RNA: GGGAGUUCUACAGUCCGACGAUCCCAGUCCUGUGCCACUCGUCUGGAUUCCCCCUUCAGCUGAUUGACAAACUUUGCUGCGGGCUCCAGAUCACCAUGCUCAAUGCAAUAGGAAGCAUAUGACAGUAAUUUAAAUGUGUUUAUCAACAGAGGAUUGAGCAUCA
# B18: chr17:6074196:6074197:-_ENSMUSG00000015659_ENSMUST00000097432|mus_hu|FALSE|FALSE (ssRNA)
# RNA: GGGAGUUCUACAGUCCGACGAUCACUUUAUUAUAUUUCUGAUAUCUCUCCAGUGUGUGCCACUUUUUGGUGGGGAAGUAGAGGUUCCUAUUCUUCUGCAACAGAUGACGCAAUAAGCAGCCAGGGACAUUCUGCCGGCAGGCGCAACAGAGGAUUGAGCAUCA
# B19: 57138253_57140773_1063_3pUTR_ENSMUSG00000022752_ENSMUST00000166897|mouse|control|control (ssRNA)
# RNA: GGGAGUUCUACAGUCCGACGAUCAUCUAUUUCCUUUGAACAUUCACUUAUGAUUUUGUCAUAGUUUUCUUCUUCCAUAUAUUGUUUAGCUUUCAAAUACCCAGAAUUUUCUUUCACUUCUAAAGCCUCUCCCUCCUUGUCUUUCAACAGAGGAUUGAGCAUCA
# B20: chr1:244855233:244855234:+_ENSG00000121644_ENST00000302550|hu_mus|hu_hu_hu_mus_True|48_78 (ssRNA)
# RNA: GGGAGUUCUACAGUCCGACGAUCCAUCAGAUGGUAGGCGUUGCCCUUAUACUCUUUUCCCAGUUCUUCUACAAUUUUCUCUAUAUCAUCUUCUAGGAAGUCCGUACUUCCUAGAACAACAGCUUCUUUAAAUUUAAAUGUUUCCAACAGAGGAUUGAGCAUCA
# B21: chr7:75932113:75932114:+_ENSG00000106211_ENST00000248553|hu_hu|hu_hu_hu_mus_False|58_108 (ssRNA)
# RNA: GGGAGUUCUACAGUCCGACGAUCCUGCGACCACUCCUCGGGCAACCGGGGCACCCCGAAAGCUUGAUCGAAGAGGCGGCUAUGCGGAGGGUACCAGUCCCGGAAUGGUUCCCAGCUCGGGCUCCGCAGCAGCGAGAAGGGCACCAACAGAGGAUUGAGCAUCA
# B22: chr1:231488893:231488894:+_ENSG00000010072_ENST00000295050|hu_hu|FALSE|FALSE (ssRNA)
# RNA: GGGAGUUCUACAGUCCGACGAUCAUUAACCAUUUUGCUCUGACUGGAUGAACUGCUGGAAUUCUGAGCUGUGGUUGUACUAUACUUUGGAUCAUUACCACUGCUUUUUAUUUGCUCUUUCUUGAUAAAAAAAUUGUCAAAAACCAACAGAGGAUUGAGCAUCA
# Molecular target: T1, UNK ZnF1-3
# Experiment: nsRBNS (natural sequence RNA bind-n-seq); RBNS binding buffer (assumed for nsRBNS): 25 mM Tris pH 7.5, 150 mM KCl, 3 mM MgCl2, 0.01% Triton X-100, 500 ug/ml BSA, 20 U/ml SUPERase-In, 4 C; UNK is unkempt and MSI1 is Musashi-1; names of the RNAs are library labels; protein concentration not given here; high values mean tight binding
row,Binder,binding signal
1,B1,1.57 enrichment R
2,B2,1.06 enrichment R
3,B3,1.23 enrichment R
4,B4,0.887 enrichment R
5,B5,1.08 enrichment R
6,B6,0.947 enrichment R
7,B7,0.964 enrichment R
8,B8,0.914 enrichment R
9,B9,1.03 enrichment R
10,B10,0.959 enrichment R
11,B11,0.683 enrichment R
12,B12,0.725 enrichment R
13,B13,0.684 enrichment R
14,B14,1.82 enrichment R
15,B15,0.476 enrichment R
16,B16,0.814 enrichment R
17,B17,0.946 enrichment R
18,B18,1.14 enrichment R
19,B19,0.414 enrichment R
20,B20,1.29 enrichment R
21,B21,1.11 enrichment R
22,B22,0.775 enrichment R

# Source: PMC12136788
